The values that follow come from PubChem BioAssay AID488969 (Vanderbilt High Throughput Screening Facility, 2010).

In all, about 110,000 compounds were measured (“z-score”: median about -0.1, highest 2% from about 2 on). The list shows a part of the results. The source made the active and inactive calls.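 How the source made its calls: active means z-score in the third read window above 3 or below -3; inactive means the rest.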

In this assay the target is Metabotropic glutamate receptor 8 (Rattus norvegicus) (UniProt P70579). As to the kind of experiment: mGluR8 Gi/Go-coupled signaling modulation – cell-based, rat, thallium flux, HTS, primary screen (AID 488969). Conditions: HEK293 rat mGluR8, GIRK (G protein-gated inwardly rectifying potassium channel) thallium flux, FluoZin2; at 10 µM; stronger effect = higher value; submaximal glutamate (EC20) added with thallium.
Chain of UniProt P70579 (P70579 whole entry, looked up): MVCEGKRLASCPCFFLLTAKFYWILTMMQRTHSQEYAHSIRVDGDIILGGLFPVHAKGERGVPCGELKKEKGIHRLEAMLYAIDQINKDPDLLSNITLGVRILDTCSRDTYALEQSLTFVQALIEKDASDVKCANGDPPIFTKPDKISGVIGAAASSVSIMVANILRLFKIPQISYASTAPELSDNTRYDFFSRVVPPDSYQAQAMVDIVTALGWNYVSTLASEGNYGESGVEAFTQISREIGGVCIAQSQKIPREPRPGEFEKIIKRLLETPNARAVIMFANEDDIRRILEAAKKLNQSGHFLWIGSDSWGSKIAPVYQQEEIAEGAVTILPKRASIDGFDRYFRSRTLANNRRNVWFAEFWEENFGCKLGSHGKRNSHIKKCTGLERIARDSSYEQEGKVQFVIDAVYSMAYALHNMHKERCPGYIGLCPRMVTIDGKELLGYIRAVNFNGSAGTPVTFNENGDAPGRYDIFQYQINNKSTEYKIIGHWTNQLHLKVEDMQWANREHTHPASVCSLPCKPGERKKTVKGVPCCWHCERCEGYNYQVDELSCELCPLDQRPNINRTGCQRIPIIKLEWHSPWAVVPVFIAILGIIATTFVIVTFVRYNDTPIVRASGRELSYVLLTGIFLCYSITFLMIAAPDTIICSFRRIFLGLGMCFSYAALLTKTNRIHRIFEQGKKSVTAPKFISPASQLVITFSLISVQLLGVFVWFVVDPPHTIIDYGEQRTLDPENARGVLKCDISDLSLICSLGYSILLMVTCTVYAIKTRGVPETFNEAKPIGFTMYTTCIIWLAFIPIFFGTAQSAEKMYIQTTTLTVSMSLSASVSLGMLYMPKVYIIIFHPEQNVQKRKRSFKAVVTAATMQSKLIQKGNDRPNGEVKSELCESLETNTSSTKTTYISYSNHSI
Regarding `COc1ccc(C)cc1NC(=O)CN(c1ccccc1F)S(C)(=O)=O`, the z-score is -0.431.

Regarding `CC(C)NC(=O)CN1C(=O)NC(CCc2ccccc2)C1=O` (centres undefined), the z-score is 0.261.

`C/C(=N\NC(=O)c1cccc(N/N=C(\C)c2ccccc2)c1)c1ccccc1` returned a z-score of -0.529.

For the compound `CCCN(CCC)C(=O)CSc1nc2ccccc2c(=O)n1C1CCCC1`, the z-score was active: -4.46.

Consider `Cn1cccc1Cc1nnc(SCC(=O)NCc2ccc3c(c2)OCO3)n1CCc1ccccc1`, for which the z-score came to 0.499.

`Cc1ccc(-c2nnc(NC3CCCCC3)c3ccccc23)cc1S(=O)(=O)N1CCN(C)CC1` came in with a z-score of -0.39.

As to `CCC1=Nc2ccc(Br)cc2C(c2ccccc2)N1CC(=O)OC` (centres undefined), the z-score was -0.0378.

The compound `COc1ccc(OC)c(NC(=O)C2CCCN2C(=O)C2CCC(C)CC2)c1` (centres undefined) yielded a z-score of -0.952.

Take `COc1ccccc1NC(=O)CSc1nnc(CC(=O)Nc2cccc(C(F)(F)F)c2)n1C`: the z-score was found to be 0.541.

Regarding `Cc1ccc2nc(NC(=O)CSc3nnc(C)c(=O)n3N)sc2c1`, the z-score is -0.051.

Turning to `CCC(Sc1ncccc1C(=O)OCCN1CCCC1=O)C(=O)NCc1ccco1` (centres undefined), the z-score is -0.404.

For `O=C(NCc1ccc2c(c1)OCO2)C1CCC(CNS(=O)(=O)c2ccccc2)CC1` (centres undefined), the z-score is -0.0357.

In the case of `BrC(=C\c1ccccc1)/C=N/Nc1nc(N2CCOCC2)nc(N2CCOCC2)n1`, the z-score was -0.316.

`O=C(N/N=C1\CCCc2ccccc21)c1ccccc1[N+](=O)[O-]` returned a z-score of -0.0482.

`O=c1[nH]n2c(=O)c3c([nH]c2c1N=Nc1ccccc1)CCC3` had a z-score of -0.872.

`CC(=O)c1c(O)c(C)c(-c2ccccc2)n(-c2ccccc2)c1=O` registered a z-score of -0.148.

The compound `O=C1CCC(=O)N1CNc1ccccn1` returned a z-score of 1.05.

`CCN(c1ccccc1)S(=O)(=O)c1cc(OC)ccc1OC` displayed a z-score of 0.192.

In turn, `COCCNS(=O)(=O)c1ccc(OCC(=O)OC)c(Cl)c1` registered a z-score of -0.665.

Compound `O=C(c1ccco1)N1CCN(C(=O)c2cc3c(s2)-c2ccccc2OC3)CC1` gave a z-score of -0.636.

`COCCNC(=O)COc1ccc(Oc2ccccc2)cc1` gave a z-score of -0.042.

Turning to `Cc1ccc(S(=O)(=O)N(C)C)cc1NC(=O)COC(=O)c1c(C)noc1C`, the z-score is -0.16.

`CCN1CCN(c2nc(N)c([N+](=O)[O-])c(Nc3cccc(C)c3)n2)CC1` showed a z-score of 0.0136.

With `Cc1c(NC(=O)C(C)NCC2CCCO2)c(=O)n(-c2ccccc2)n1C` (centres undefined), the z-score is -0.189.

Consider `CCOc1ccc(S(=O)(=O)NCc2ccc(F)cc2)c2cccnc12`, for which the z-score is -0.347.

In the case of `Cc1cc2nc(C)n(CCCNC(=O)Nc3ccccc3)c2cc1C`, the z-score was -0.376.

`Cc1nn(-c2cc(N3CCCCC3)ccc2[N+](=O)[O-])c(=O)c2ccccc12`: the z-score was -0.905.

As to `CCC(C)[C@H](NC(=O)OC(C)(C)C)C(=O)N/N=C/c1ccc2cc(OC)ccc2n1` (some centres undefined), the z-score was -0.0973.

As for `Cn1c(C(N)=O)cnc1Sc1ncc(C(F)(F)F)cc1Cl`, the z-score is -0.347.

`O=S(=O)(NC1CC1)c1ccc(S(=O)(=O)N(Cc2ccccn2)C2CCCC2)cc1` yielded a z-score of -0.114.

`CCSc1nc2c(sc3ccccc32)c(=O)n1C(C)C`: the z-score turned out to be 0.00726.

Compound `O=C(N/C(=C/c1ccc(Br)cc1)C(=O)N1CCCC1)c1ccccc1F` yielded a z-score of -0.382.

`Cc1cc(C)nc(N2CCCC(C(=O)Nc3ccc4c(c3)OCO4)C2)n1` (centres undefined): the z-score was determined as 0.461.

`COc1cc2c(cc1NC(=O)c1cc(-c3ccncc3)nc3ccc(C)cc13)oc1ccccc12` displayed a z-score of -1.46.

Consider `O=c1[nH]c(SCc2cc(=O)n3ccccc3n2)nc2c1CCC2`, for which the z-score is -0.229.

Consider `COc1cccc(Nc2nc(-c3ccc(O)cc3)cs2)c1`, for which the z-score was -0.635.

`CCNC(=S)NNC(=O)c1ccccc1OC(F)F` came in with a z-score of -0.0422.

`O=C1NC(c2ccncc2)Nc2sc3c(c21)CCCC3` (centres undefined) displayed a z-score of -0.239.

Turning to `COCCn1c(=S)[nH]c2cc(C(=O)N3CCN(c4ccc(F)cc4)CC3)ccc2c1=O`, the z-score was active: 4.3.

`COCCN(CCOC)S(=O)(=O)c1ccc(C(=O)Nc2nc(-c3ccccc3)c(C(=O)c3ccccc3)s2)cc1`: the z-score was -0.275.

In the case of `COC(=O)CSc1c(-c2ccccc2)c2cc(Cl)ccc2[nH]c1=O`, the z-score is -0.594.

The compound `COC(=O)Nc1ccc(S(=O)(=O)N2CCN(c3ccc(F)cc3)CC2)cc1` showed a z-score of 0.413.

On to `CC(C)(C)N(NC(=O)OCc1ccccc1)C(=O)c1ccccc1Cl`, for which the z-score is -0.285.

With `Cc1ccccc1C(=O)N/C(=C/c1ccc(-c2cccnc2Cl)o1)C(=O)NCCCN1CCN(C)CC1`, the z-score is -0.021.

In the case of `Cc1cc(C)n(C(C[N+](=O)[O-])c2ccc(Cl)cc2)n1` (centres undefined), the z-score is -0.0311.

Regarding `c1ccc(SCCc2ccncc2)cc1`, the z-score was -0.316.

`CCCCCOC(=O)C1=C(C)NC(=O)NC1c1ccccc1OCC` (centres undefined) yielded a z-score of -0.85.

For `CCOC(=O)c1ccc(-n2c(=S)sc3c(=O)[nH]c(C)nc32)cc1`, the z-score was -2.45.

Regarding `C=CCn1c(SCc2nc3ccccc3c(=O)[nH]2)nnc1-c1cc2cc(Cl)ccc2o1`, the z-score was -0.542.

The compound `Cc1nc(NC(=O)c2ccco2)sc1-c1csc(Nc2ccc(Cl)cc2Cl)n1` returned a z-score of -1.59.

Compound `CCc1ccccc1NC(=O)CC(O)(C(=O)OC)C(F)(F)F` (centres undefined) registered a z-score of -0.152.

In turn, `COc1cc(OC)cc(C(=O)NC(=S)NNC(=O)Cc2cccs2)c1` returned a z-score of 2.21.

The compound `CS(=O)(=O)N(CC(=O)NCCC1=CCCCC1)c1ccc2c(c1)OCO2` gave a z-score of 0.874.

With `COc1ccc(C(=O)NN(c2ccccc2)c2ccccc2)cc1`, the z-score is -0.0602.

As for `O=C(CCCN1C(=O)c2ccccc2C1=O)NCC1CCCO1` (centres undefined), the z-score is -0.206.

The compound `CCN(CC)c1ccc(/C=c2\sc3nnc(-c4ccccc4Cl)n3c2=O)cc1` displayed a z-score of 0.174.

`Cc1ccc(S(=O)(=O)c2c(C)nn(C(C)(C)C)c2OC(=O)c2ccc(Br)o2)cc1` gave a z-score of -0.239.

In the case of `O=C(Cc1ccc2c(c1)CCCC2)Nc1ccccc1Br`, the z-score amounted to 0.000969.

Turning to `O=C(Nc1ccc(N2CCCCC2)cc1)c1ccc2c(c1)OCCO2`, the z-score was -0.0957.

`CCC(C(=O)Nc1ncccn1)(C(F)(F)F)C(F)(F)F`: the z-score is -0.452.

In turn, `CC(=O)C(N=Nc1ccccc1)(Sc1nnc(-c2ccccc2)n1-c1ccccc1)C(=O)Nc1ccccc1` (centres undefined) displayed a z-score of 0.064.

`CCOC(=O)c1c(NC(=O)CCc2ccc(CC)o2)sc(C)c1C` returned a z-score of 0.0113.

Compound `O=C(Nc1ccccn1)NC12CC3CC(CC(C3)C1)C2` gave a z-score of -0.535.

In turn, `CCCC(=O)NC(C)c1nc2ccccc2[nH]1` (centres undefined) gave a z-score of -0.0881.

Compound `CC(C)C(=O)N1CCN(c2ccc([N+](=O)[O-])c(NC(C)c3ccccc3)c2)CC1` (centres undefined) displayed a z-score of -1.73.

Compound `N/C(=N\OC(=O)c1cc(Cl)ccc1Cl)c1ccccn1` registered a z-score of -0.479.

For `COc1ccc(CCNC(=O)c2ccn[nH]2)cc1OC`, the z-score is 0.156.

With `Cc1cc(C)nc(SCc2cn3cc(Cl)ccc3n2)n1`, the z-score is -0.113.

The compound `CC(C)(C)c1cccc(/C=N/O)c1O` showed a z-score of 1.27.

In turn, `Clc1ccc(-c2nnc3ccccn23)cc1` had a z-score of -0.45.

With `Cc1ccc2[nH]c3c(c2c1)CN(C)CC3`, the z-score was 0.196.

For the compound `CCNC(=O)CC1SC(=Nc2ccc(Cl)cc2)N(CC)C1=O` (centres undefined), the z-score was -0.31.

As for `CN(C)c1ccc2c(O)cc(=O)n(C)c2c1`, the z-score came out at 0.0918.

As to `Clc1ccc(Cl)c(OCCCCNCc2ccccc2)c1`, the z-score is -0.0845.

`COC(=O)c1c(-c2ccccc2)csc1N` gave a z-score of -0.446.

As for `CC(C)c1ccccc1NC(=O)COC(=O)Cc1ccsc1`, the z-score amounted to 0.502.

`O=C1CC(=O)N(Cc2cccs2)C(=O)N1` had a z-score of -0.277.

With `CCCn1cc(S(=O)(=O)CC(=O)Nc2ccc(OC)cc2OC)c2ccccc21`, the z-score is -0.669.

`Cc1ccc(C(=O)Nc2cccc(C(=O)NCc3ccccc3)c2)cc1` yielded a z-score of 0.486.

In the case of `c1ccc2c(-n3cccn3)cccc2c1`, the z-score is -0.0595.

`CCOC(=O)c1ccc(N/C=C/C(=O)c2ccco2)cc1`: the z-score is 0.0424.

`CCN1CCN(c2cc(=O)n(C3CCCCC3)c(=O)[nH]2)CC1` registered a z-score of 0.288.

In the case of `O=C(Cn1cnc([N+](=O)[O-])c1)Nc1cc(Oc2ccc(Cl)cc2Cl)cc([N+](=O)[O-])c1`, the z-score was -0.00842.

For `O=C(Nc1nccs1)C1CCCN(S(=O)(=O)c2cccnc2)C1` (centres undefined), the z-score was -0.233.

Compound `O=C(CSc1nnc(-c2ccc(S(=O)(=O)N3CCCC3)cc2)o1)NCc1ccco1` registered a z-score of -0.555.

In turn, `CC1CCC(C(C)C)C(OC(=O)CSc2nnc(N)s2)C1` (centres undefined) gave a z-score of -0.18.

`CCSc1nnc2c(n1)OC=Nc1ccc(Br)cc1-2` showed a z-score of -2.12.

Regarding `Cc1ccc(-c2nnc(N(C)C(=O)c3cccnc3)s2)cc1`, the z-score was -0.281.

Compound `CC(C)NC(=O)c1ccccc1NC(=O)CCS(=O)(=O)Cc1ccccc1` showed a z-score of 0.338.

In turn, `O=C(NNC(=O)C1CCCCC1)C(=O)NC1CCCCC1` registered a z-score of 0.347.

`Cc1noc(C)c1S(=O)(=O)N1CCCC(C(=O)Nc2nccs2)C1` (centres undefined) came in with a z-score of -0.132.

`COc1cc(/C=C/C(=O)NCCN2CCOCC2)cc(OC)c1OC`: the z-score was -0.867.

Compound `C=CCC(Nc1ccccc1)C12C=CC(O1)C(C(=O)OC)=C2C(=O)OC` (centres undefined) showed a z-score of 0.507.

As for `CCCCc1n[nH]c2c1/C(=N/O)CC(C)(C)C2`, the z-score came out at 0.0176.

`O=C(Nc1cccc(-c2nc3ccccc3s2)c1)c1cc(=O)c2ccccc2o1` displayed a z-score of -0.035.

Compound `COc1ccc(NC(=O)CC(=O)Nc2ccc(OC)cc2OC)c(OC)c1` displayed a z-score of -0.0921.

Compound `COc1ccc(-c2nc(CSCC(=O)N3CCN(C(=O)c4ccco4)CC3)c(C)o2)cc1OC` showed a z-score of -0.0951.

The compound `CC(=O)NN1C(=O)/C(=C/c2ccc(Br)o2)SC1=S` gave a z-score of -0.178.

For `O=[N+]([O-])c1cccc(/C=N/n2c(C3CCCCC3)n[nH]c2=S)c1`, the z-score is 0.141.

Regarding `CN(Cc1ccccc1)C(=O)CSc1nc2ccccc2c(=O)n1Cc1ccco1`, the z-score was -0.91.

As for `Cn1c(CCCOc2ccc(Cl)cc2Cl)nnc1SCC(=O)Nc1cccc(F)c1`, the z-score was -0.0527.

With `COc1ccc(NS(=O)(=O)c2cc(NC(=O)c3ccc(C)o3)ccc2N2CCCCC2)cc1`, the z-score is -0.024.

Consider `O=c1sc2ccccc2n1CCCOc1ccccc1`, for which the z-score is -0.0722.

With `Cc1sc2nc(SCC(=O)OC(C)C)n(C)c(=O)c2c1C`, the z-score is 0.997.

In turn, `O=C(c1ccc(N2CCCCCC2)c([N+](=O)[O-])c1)N1CCc2ccccc21` came in with a z-score of 0.158.

Compound `O=C1c2ccccc2C(=O)N1CCn1c(=O)oc2ccccc21` yielded a z-score of 1.56.

In the case of `CC(=O)Nc1cccc(C(=O)OC(C(=O)c2ccc(C)c(C)c2)c2ccccc2)c1` (centres undefined), the z-score was -0.114.

The compound `Cc1cc2c3c(c1C)C1(C(=O)N3C(C)(C)CC2C)C(C#N)=C(N)Oc2n[nH]c(C)c21` (centres undefined) displayed a z-score of 0.0461.

Consider `CCOC(=O)CC(NC(=O)c1cc2cc(Cl)cc(Cl)c2oc1=O)c1cccc([N+](=O)[O-])c1` (centres undefined), for which the z-score came to 0.273.
